T1: UNK ZnF1-3 (human, UniProt Q9C0B0 31-174)
T1 sequence: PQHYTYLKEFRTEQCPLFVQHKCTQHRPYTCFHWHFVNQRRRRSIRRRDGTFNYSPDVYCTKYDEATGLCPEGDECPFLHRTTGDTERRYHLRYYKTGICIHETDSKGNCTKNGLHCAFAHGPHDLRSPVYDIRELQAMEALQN

B1: chr11:46405157:46405158:+_ENSG00000110492_ENST00000395566|hu_hu|hu_hu_hu_mus_False|78_108 (ssRNA)
RNA: GGGAGUUCUACAGUCCGACGAUCCCCUUAGGGGUGGGGGCACUUGGUGUGGGCGUGAAGGCAGGGCCGUGAUUGACAGAGCUGACAGGAAGACAAAAGGCACUGGUGGGUUAUAUCUUGGGCCUGUGGGAGAGGAGGGCUCCGCAACAGAGGAUUGAGCAUCA
B2: chr5:23024286:23024287:-_ENSMUSG00000062604_ENSMUST00000088392|mus_hu|motif|central (ssRNA)
RNA: GGGAGUUCUACAGUCCGACGAUCACACGCCGUGCUCCAGAUGUCCGCAGGGGUGCUGUACCCCGCUCCUAUUAAAACCUCGGUGGAGCGGUACUGACGCGUCUGGAUGUCUUCCGUGAAGUGUUUAUGCACCCAACAAGCAUUCAACAGAGGAUUGAGCAUCA
B3: chr3:9792807:9792808:+_ENSG00000114026_ENST00000339511|hu_mus|FALSE|FALSE (ssRNA)
RNA: GGGAGUUCUACAGUCCGACGAUCGGCCACUCUUUGGAAGUGGGAGUCUACAGAAGCCCAGUGGCUAUACAGCUGUGCCAGGCUGACAUCUAGCUGAAAGUACUUGUGUAGGGUUUCCAGCUCCUCUAGGGUGGGCCUGCUGACCAACAGAGGAUUGAGCAUCA
B4: chr3:88895943:88895944:-_ENSMUSG00000041263_ENSMUST00000052539|mus_hu|FALSE|FALSE (ssRNA)
RNA: GGGAGUUCUACAGUCCGACGAUCAGAAGAAGCUCCGGAGCAGGAAUCAGGAGAGCAGCAGAAGCUGUCCGGUGAGCAGGUGCCAGGGCCUGCUGAAGCCAGUGGGGAGCCCUGCUCCAGGGGGAUGAUACUGGGCUGAGGGUGCAACAGAGGAUUGAGCAUCA
B5: chr8:104447970:104447971:+_ENSG00000164934_ENST00000297579|hu_hu|hu_hu_hu_mus_False|18_18 (ssRNA)
RNA: GGGAGUUCUACAGUCCGACGAUCAUACACUUCCCUGCUUCGGCUCUUGUCCACAGGAAAGAUUCUAAUAGACUUAUCAAAGCUGGCAGACACAAAUUCCUUCCCAGUGGGAGAGUAAUCCACAUCAAGUACUGCAGACACGUGCAACAGAGGAUUGAGCAUCA
B6: chr9:121621712:121621713:+_ENSMUSG00000032526_ENSMUST00000035113|mus_hu|motif|central (ssRNA)
RNA: GGGAGUUCUACAGUCCGACGAUCUUUUGAAGUGCUGGUUGGACUGGCAUCUGCAAUGGUAGCCAAAUAAAUGAGAUUUCGGUGUAACACAUGCUGGUACUGCACGCACUCGUUCCCGCGGCCCUUGUUCUGAUACUCCACAAUCAACAGAGGAUUGAGCAUCA
B7: chr2:37230337:37230338:-_ENSMUSG00000075376_ENSMUST00000100143|mus_hu|FALSE|FALSE (ssRNA)
RNA: GGGAGUUCUACAGUCCGACGAUCAGAAAUAAAUAAGUUAACUAAGUCUACUUUCACUAGAUGUAUCAUUGUAGGAUCCUGCUAGUUUAAUAACUGAGUUGUUAAUUUUCUAUAGAAGCCAUUUAAAAUAGGAAAUGGCUCAGUCAACAGAGGAUUGAGCAUCA
B8: chrX:20248820:20248821:+_ENSMUSG00000001924_ENSMUST00000001989|mus_mus|mus_mus_mus_hu_True|8_68 (ssRNA)
RNA: GGGAGUUCUACAGUCCGACGAUCGGCGAAGUCCGUCACCACAAAGUCAGGUUCUGCCAGUGAGGCCGGCAAGGAUUUAAAGCUAAUCUUCUUAGGUACUUUGACCUGACUGACGAUGCCUCCACGGAUGUAGUCAGAGAAGUUCAACAGAGGAUUGAGCAUCA
B9: chr7:118215213:118215214:-_ENSMUSG00000005610_ENSMUST00000162415|mus_mus|FALSE|FALSE (ssRNA)
RNA: GGGAGUUCUACAGUCCGACGAUCAAGCUUAUUCCUUAGGUGCUUAGAAAGCAGAGCCAAAGAGUUGACACAAGGUCUGUAAUAGUAAAGGUCAGAUUAAGUUGACAGUUUGCAUUAGAUUGAUAGGGAAUAGUUCUGAGGUGACAACAGAGGAUUGAGCAUCA
B10: chr7:7679991:7679992:-_ENSG00000106399_ENST00000396682|hu_hu|hu_hu_hu_mus_False|28_98 (ssRNA)
RNA: GGGAGUUCUACAGUCCGACGAUCUGGGAUGAAUCUUUUCCAGCCUCCCCACGAAGCACACGGGCCGGUCGAUAUACUGUGGUAACAUGCUGGCGUUGACGCGCGCUCUGGGCAAGUGCAUUAUGUCCUCCAUGAUUCUGCCGCCAACAGAGGAUUGAGCAUCA
B11: chr7:135612788:135612789:-_ENSG00000105887_ENST00000393085|hu_hu|FALSE|FALSE (ssRNA)
RNA: GGGAGUUCUACAGUCCGACGAUCCAAGAGGUGAAAACAAAGGUAUCAAAACACCCUGUUGCACUACGUUGAUAGUUAUAGACUGAUAGAGUGCCCUCCAUUUUCAAUGAGGAUGUCUCCAUAUUUUAGUUCAGUGAUGUAAUACAACAGAGGAUUGAGCAUCA
B12: chr16:8621372:8621373:+_ENSMUSG00000057880_ENSMUST00000065987|mus_hu|FALSE|FALSE (ssRNA)
RNA: GGGAGUUCUACAGUCCGACGAUCGAUGCUACUUAGCUAUGGUUUUCUACCAUGAGCUUAUAUAUAGAUAGGUGUAGGUAUGUAGAUACAUUAAUGCUAUACACAAUUUUGCAUGGUUACUGAGCGUCAGUAAAAAUUAUGAAACAACAGAGGAUUGAGCAUCA
B13: chr19:45035288:45035289:+_ENSMUSG00000036097_ENSMUST00000096053|mus_mus|motif|central (ssRNA)
RNA: GGGAGUUCUACAGUCCGACGAUCAGUCUCCAGAGGAAACAAAGAUCCAAAACCAACGCCCAUGUUGAAGAAUACAGCUGCGGUAUCAGACAAAGAUGGGAUCCAGGGCCAAACUGGAGAGUCACUGAAAGUAUCAUUUCUAAUCAACAGAGGAUUGAGCAUCA
B14: chr1:84754351:84754352:-_ENSMUSG00000026219_ENSMUST00000027421|mus_mus|FALSE|FALSE (ssRNA)
RNA: GGGAGUUCUACAGUCCGACGAUCAGCAUGAUUUUUCAGAACAUCCUUCAGAAGUUCAGCAUCAGCAAAAUAAAUUAUCCUAAGAAUUGCUCUAAGGCACUUGUGUCUGACCGCAGGGCCUGCUGAGGAGCUGUACACUUCAUACAACAGAGGAUUGAGCAUCA
B15: chr1:59924863:59924864:+_ENSMUSG00000067336_ENSMUST00000087435|mus_hu|motif|central (ssRNA)
RNA: GGGAGUUCUACAGUCCGACGAUCGCUGCCAAAUUUUAGCCGGGGCUCUUUUGUUGAAUUUUUGGUGUUCAAAGGCAAACGGGUAGGUCUCUUGGGAAGGUUCUGCUGCUUGGGGAGAGGAUAGAUCUGAGUAGGCAGAACAUCCAACAGAGGAUUGAGCAUCA
B16: chr5:137527996:137527997:-_ENSG00000094880_ENST00000394886|hu_mus|FALSE|FALSE (ssRNA)
RNA: GGGAGUUCUACAGUCCGACGAUCUUCUCCUAAGGCAACCAGCAUGCGAGAAUCAUUGGGACGAAGCUGGUGGGCCCGUCUAUAAUAAUAAAGGCAAUAAAAUGGCAUUUUAAGGAUUUCGUAAGUCUGCCCAAGGCCAUACCACAACAGAGGAUUGAGCAUCA
B17: chr4:17845017:17845018:+_ENSG00000109805_ENST00000514176|hu_mus|hu_hu_hu_mus_False|38_78 (ssRNA)
RNA: GGGAGUUCUACAGUCCGACGAUCGCUCUCUUAACUUGUAUCUUCAUUAAGGAACUCGCAAGGUUAAAGUUUACUUUUCUGUAGCGCAGCUGUUUUGCUCGUCUUGGGUAAUCUCAUCUUCAUUUCUGAUGGUGGUUCAUGAUCCAACAGAGGAUUGAGCAUCA
B18: chr16:94651144:94651145:+_ENSMUSG00000040785_ENSMUST00000117648|mus_hu|mus_mus_mus_hu_True|28_28 (ssRNA)
RNA: GGGAGUUCUACAGUCCGACGAUCAUUUUCUUGAAUCAAGUGGCGAAUAACAUAGUCCACUGCUUCAUUUAGAAAAUUUCUGCUAGAAAAACAGGUUGUAUAGUCUUCCGUGCUCAGAACUUUCCAAGAAAGCAAUUCUUUGAGCAACAGAGGAUUGAGCAUCA
B19: 235292066_235292186_125_5pUTR_ENSG00000173726_ENST00000366607|human|control|control (ssRNA)
RNA: GGGAGUUCUACAGUCCGACGAUCGGACCGCGAAGGAGCGGUGGGCCACGAACCCUCAGAGCGGUCGGCGCAGCUCACACCCGACGGCCGCGGGCCAGGAACACAGAAAGGCCGAGCACACGCCACUUCCGGUCCCAGUCAACUCAACAGAGGAUUGAGCAUCA
B20: chr12:69233606:69233607:+_ENSG00000135679_ENST00000462284|hu_mus|motif|central (ssRNA)
RNA: GGGAGUUCUACAGUCCGACGAUCCUAAUUUGGGGGUCAUAUAGUUAGAAAUAUAAAAUUCUAUUUUUGUGAGCAGGUCAGCGGGUUGAAGUAAGUUAGCACAAUCAUUUGGAUUGGCUGUCUGCACACUGGGCAGGGCUUGUUCAACAGAGGAUUGAGCAUCA
B21: chr2:179803060:179803061:+_ENSMUSG00000039086_ENSMUST00000041126|mus_hu|FALSE|FALSE (ssRNA)
RNA: GGGAGUUCUACAGUCCGACGAUCGUCUUAGAAAUGUAAAAAUUACUCAAGUUUCUCUAUAUAAAACCUUUACUUUUCAUUAGAAAGAACACAGUAAUGUAACUGGAUGUGACUUUCAGACAUCCCUAAAAGAAAAGAAAUGCUCAACAGAGGAUUGAGCAUCA
B22: chr7:7612872:7612873:+_ENSG00000164654_ENST00000405785|hu_mus|FALSE|FALSE (ssRNA)
RNA: GGGAGUUCUACAGUCCGACGAUCCUUUGUCAAGGGCUUUGGUUGUUCAGUCAAAGUCAAAACUGGCUUCUCAAAUUUUCUAAGAUCCCAUAUUGCAACCUGACCUUCAUAGAAGGAAGCAACACGAUCGUGGAAGUAAGGGUCCAACAGAGGAUUGAGCAUCA

Experimental findings from publication PMC12136788 are described below.

The list shows a part of the results.

In the assay the target is T1, UNK ZnF1-3. Description: nsRBNS (natural sequence RNA bind-n-seq); RBNS binding buffer (assumed for nsRBNS): 25 mM Tris pH 7.5, 150 mM KCl, 3 mM MgCl2, 0.01% Triton X-100, 500 ug/ml BSA, 20 U/ml SUPERase-In, 4 C; UNK is unkempt and MSI1 is Musashi-1; names of the RNAs are library labels; protein concentration not given here; high values mean tight binding.
B1 displayed a binding signal of 2.19 enrichment R.

In turn, B2 had a binding signal of 0.856 enrichment R.

Molecule B3 showed a binding signal of 1.08 enrichment R.

B4 had a binding signal of 1.61 enrichment R.

In the case of B5, the binding signal is 0.972 enrichment R.

The molecule B6 displayed a binding signal of 1.24 enrichment R.

In the case of B7, the binding signal is 0.87 enrichment R.

Regarding B8, the binding signal came out at 1 enrichment R.

With B9, the binding signal worked out at 0.986 enrichment R.

For B10, the binding signal was 0.746 enrichment R.

In turn, B11 came in with a binding signal of 0.864 enrichment R.

The molecule B12 gave a binding signal of 0.892 enrichment R.

Molecule B13 showed a binding signal of 1.94 enrichment R.

For B14, the binding signal amounted to 2.18 enrichment R.

B15 registered a binding signal of 1.52 enrichment R.

B16 showed a binding signal of 1.06 enrichment R.

On to B17, for which the binding signal was 0.38 enrichment R.

The molecule B18 yielded a binding signal of 0.492 enrichment R.

In turn, B19 registered a binding signal of 0.531 enrichment R.

On to B20, for which the binding signal was determined as 1.58 enrichment R.

In the case of B21, the binding signal was 0.678 enrichment R.

B22 returned a binding signal of 0.757 enrichment R.
